In patent US20260125444A1 (SHANGHAI MINWEI BIOTECHNOLOGY, published 2026):
Where a chain is given by its changes, count along the chain named.

T1: human GIP receptor (human, UniProt P48546 22-466)
T1 sequence (looked up): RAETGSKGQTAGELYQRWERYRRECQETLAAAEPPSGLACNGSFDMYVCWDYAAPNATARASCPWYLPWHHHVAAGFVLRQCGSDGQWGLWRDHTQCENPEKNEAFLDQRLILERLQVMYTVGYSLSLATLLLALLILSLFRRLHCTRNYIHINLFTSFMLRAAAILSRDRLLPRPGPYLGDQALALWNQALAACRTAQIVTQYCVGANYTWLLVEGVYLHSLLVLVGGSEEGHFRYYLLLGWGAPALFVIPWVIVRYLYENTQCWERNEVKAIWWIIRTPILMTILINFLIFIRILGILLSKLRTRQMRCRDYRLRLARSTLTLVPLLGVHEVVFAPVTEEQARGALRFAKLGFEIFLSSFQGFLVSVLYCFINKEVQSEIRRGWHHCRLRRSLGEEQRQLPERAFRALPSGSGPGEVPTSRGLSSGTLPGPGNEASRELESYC

B1: 12C3-F fusion protein (Fc fusion)
chain: YGEGTFTSDYSIYLDKIAQKAFIEWLIAGGPSSGAPPPSGGGGSGGGGSGGGGSA[letters of human IgG4 Fc with S228P F234A L235A (EU numbers) left out]GGGGSGGGGSGGGGSHPIPDSSPLLQFGGQVRQVYLYTDDAQQTEAHLEIREDGTVGGAADQSPESLLQLKALKPGVIQILGVKTSRFLCQRPDGALYGSLHFDPEACSFRERLLEDGYNVYQSEAHGLPLHLPGNKSPHRDPAPRGPARFLPLPGLPPALPEPPGILAPQPPDVGSSDPLSMVGNSTGRSPSYAS
B2: 12C11-F fusion protein (Fc fusion)
chain: B1 chain with Y1H, Q19A, A21D
B3: 12C12-F fusion protein (Fc fusion)
chain: B1 chain with Y1H, G2S, Y13L
B4: 12C1-F fusion protein (Fc fusion)
chain: B1 chain with Y13L

Each binder was assayed against human GLP-1 receptor (human, UniProt P43220) (assay: cell-based or functional assay).
In the case of B1, the “GLP-1 EC50(nmol/L), CRE-luciferase reporter” value (from here on “GLP-1 EC50(nmol/L)”) is reported as 0.515 nmol/L. In the case of B2, the “GLP-1 EC50(nmol/L)” value is reported as 0.255 nmol/L. In the case of B3, the “GLP-1 EC50(nmol/L)” value is reported as 0.642 nmol/L. For B4, the “GLP-1 EC50(nmol/L)” value was 0.83 nmol/L.

These binders were tested against T1, human GIP receptor (assay: cell-based or functional assay).
For B1, the “GIP EC50(nmol/L), CRE-luciferase reporter” value (shortened to “GIP EC50(nmol/L)”) was 0.055 nmol/L. B2 was tested, and the “GIP EC50(nmol/L)” value was 0.036 nmol/L. B3 was tested, and the “GIP EC50(nmol/L)” value was 0.006 nmol/L. In the case of B4, the “GIP EC50(nmol/L)” value is reported as 0.064 nmol/L.
